In publication PMC4336329 (PLoS ONE, 2015):
Out of some 310,000 compounds screened, about 14,000 (4.5%) showed an effect of 50% or more. Effects have a minus sign here. The list shows a part of the results.

Biological target: human ether-à-go-go-related gene (hERG) potassium channel (human, UniProt Q12809)
Assay: primary screen, population patch clamp on CHO cells stably expressing hERG
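Further: peak tail current of the secondary pulse compared with the same well before compound.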

Sequence of human ether-à-go-go-related gene (hERG) potassium channel (Q12809 whole entry, looked up): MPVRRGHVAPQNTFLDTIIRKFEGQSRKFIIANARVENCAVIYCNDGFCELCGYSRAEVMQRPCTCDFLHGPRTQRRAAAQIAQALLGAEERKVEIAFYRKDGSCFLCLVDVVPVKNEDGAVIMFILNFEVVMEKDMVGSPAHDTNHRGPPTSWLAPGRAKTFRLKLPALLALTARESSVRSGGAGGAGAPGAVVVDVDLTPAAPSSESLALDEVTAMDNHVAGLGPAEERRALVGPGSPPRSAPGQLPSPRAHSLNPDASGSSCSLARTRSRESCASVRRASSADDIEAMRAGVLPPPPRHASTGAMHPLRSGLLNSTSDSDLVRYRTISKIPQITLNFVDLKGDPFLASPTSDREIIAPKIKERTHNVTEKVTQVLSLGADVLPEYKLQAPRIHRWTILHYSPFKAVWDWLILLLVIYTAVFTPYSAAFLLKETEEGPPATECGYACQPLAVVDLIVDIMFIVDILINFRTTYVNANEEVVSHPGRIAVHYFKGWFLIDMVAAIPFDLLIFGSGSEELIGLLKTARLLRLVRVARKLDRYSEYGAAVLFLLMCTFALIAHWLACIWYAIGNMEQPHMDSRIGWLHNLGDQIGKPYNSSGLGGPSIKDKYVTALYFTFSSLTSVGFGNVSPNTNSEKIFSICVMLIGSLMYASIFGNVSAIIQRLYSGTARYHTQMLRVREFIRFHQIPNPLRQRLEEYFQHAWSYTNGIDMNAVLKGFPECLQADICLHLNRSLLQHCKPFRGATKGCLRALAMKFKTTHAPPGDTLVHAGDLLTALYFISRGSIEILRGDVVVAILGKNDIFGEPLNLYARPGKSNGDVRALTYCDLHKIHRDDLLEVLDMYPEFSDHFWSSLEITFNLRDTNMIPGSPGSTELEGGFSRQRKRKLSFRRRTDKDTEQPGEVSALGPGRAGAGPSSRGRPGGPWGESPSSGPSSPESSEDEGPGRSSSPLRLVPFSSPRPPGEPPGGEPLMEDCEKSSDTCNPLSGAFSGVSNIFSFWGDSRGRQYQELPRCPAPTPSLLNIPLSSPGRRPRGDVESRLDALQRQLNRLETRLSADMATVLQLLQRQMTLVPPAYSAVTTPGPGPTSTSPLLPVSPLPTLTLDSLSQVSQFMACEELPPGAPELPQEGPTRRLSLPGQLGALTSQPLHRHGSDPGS

Structure (SMILES)	hERG current change (%, negative = inhibition) at 10uM [%]
CC1CN(CCCOc2ccc([N+](=O)[O-])cc2)CC(C)O1.O=C(O)C(=O)O (centres unmarked)	-71.6
C=C(C)CCC1(C)NC(=O)N(c2ccccc2)N1 (centres unmarked)	-4.03
CNCC(O)c1cccc(OC(=O)c2ccccc2C)c1.Cl (centres unmarked)	-9.69
Nc1cccnc1Oc1ccc(F)cc1	7.17
COc1ccccc1NS(=O)(=O)c1cc(NC(=O)c2sccc2C)ccc1N1CCOCC1	-7.07
O=C(CN1CCN(c2cccc(Cl)c2)CC1)NCc1ccccc1	-15.5
CCCC(NC(=O)COc1cc2c(c3oc(=O)c(C)c(C)c13)CCC(C)(C)O2)C(=O)O (centres unmarked)	17.4
COc1ccc(C)c2sc(=NC(=O)c3cccc(N4C(=O)CCC4=O)c3)n(C)c12	-2.08
O=C(Nc1ccc(NC(=O)c2ccco2)c(Cl)c1)c1cccc([N+](=O)[O-])c1	26.7
CC(OC(=O)C1CCN(S(=O)(=O)c2ccc3c(c2)OCCO3)CC1)C(=O)N(C)c1ccccc1 (centres unmarked)	-25
C/C(=N\NC(=O)CCC(=O)O)c1c(-c2ccccc2)c2cc(Br)ccc2[nH]c1=O	6.72
CCC(C)Sc1nc2c(cnn2-c2ccc(C)cc2)c(=O)[nH]1 (centres unmarked)	10.2
CSc1nc(C)cc(Oc2ccc(=O)n(C)n2)n1	4.45
C/C(=N\NC(=O)c1sccc1C)c1cccnc1	18.9
Cc1cc(NC(=O)CSc2nc3c(sc4ccccc43)c(=O)n2CCCN2CCOCC2)n[nH]1	2
COc1ccc(C(=O)C2CCN(C(=O)c3ccc(OC)cc3)CC2)cc1	-77.1
Cc1nn(Cc2c(Cl)cccc2Cl)c(C)c1NC(=O)/C=C/c1cnn(C)c1C	8.85
CCCNC(=O)c1nn2cc(Br)cnc2c1Cl	-73.2
O=c1[nH]c2ccccc2n1CCCSc1cnc2ccccc2n1	-16.8
Cn1c(Sc2nc3ccccc3n2C)nc2ccccc21	-22.1
Cc1ccc(S(=O)(=O)NCCC(=O)NCC(=O)Nc2c(C)cccc2C)cc1C	-3.41
O=C(Nc1cccc(-n2cnnn2)c1)c1ccncc1	-23.9

Structure (SMILES)	hERG current change (%, negative = inhibition) at 10uM [%]
COc1ccc(NS(=O)(=O)c2ccc(NS(=O)(=O)c3cccs3)cc2)c(OC)c1	-2.15
CC1(C)CC(=O)C2=C(C1)Nc1ccccc1NC2c1ccccn1 (centres unmarked)	3.39
COc1cc2c(cc1OC)CN(CC(=O)Nc1ccc3c(c1)OC(F)(F)O3)CC2	-14.3
CC(C)(C)[C@H]1C=C(C(=O)NCc2ccccc2)O[C@@H](OCc2ccc(CO)cc2)C1	-12.9
CC1(C)Cc2ccccc2-c2nc(CN3CCOCC3)[nH]c(=O)c21	-4.72
COCCSc1ccccc1C(=O)Nc1cc(C)cc(C)c1	8.71
C/C(=N\NC(=O)CCCNc1ccccc1)c1ccncc1	16.8
Clc1ccccc1C1Nc2cccc3cccc(c23)N1	1.64
C[C@H](NC(=O)c1nc[nH]c1C(=O)NCC(=O)OC(C)(C)C)C(=O)OCc1ccccc1	-24.1
COc1cccc(CNC(=O)N2CCN(c3ccccc3Cl)CC2)c1	-28
C=CCNC(=O)c1snnc1-c1ccccc1	-0.284
CCOC(=O)CSC1=C(C#N)C(c2ccc(OC)cc2)C2=C(CC(C)(C)CC2=O)N1 (centres unmarked)	-25.8
COc1cccc(CNC(=O)CSc2nnc3c(n2)[nH]c2ccc(C)cc23)c1	-6.09
Cc1ccccc1Nc1nc(-c2sc(NC(=O)c3ccco3)nc2C)cs1	23.6
O=C(c1ccco1)N1c2ccccc2Sc2ccccc21	-0.792
Cc1ccc(C(Sc2ccccc2)C(Cn2cncn2)C(=O)c2ccccc2)cc1 (centres unmarked)	12.8
COc1ccc(C(=O)NCC(=O)OCC(=O)N2CCCc3ccccc32)cc1	19.9
COc1ccc(-n2cnnc2SCC(=O)Nc2ccc(N3CCOCC3)cc2)cc1	-10.1
C/C=C/c1ccc(OCCCN2C(=O)NC(C)(C)C2=O)c(OC)c1	9.48
N#C/C(=C\C=C\c1ccccc1[N+](=O)[O-])C(=O)NCc1ccccc1	-26.1
COCCn1c(SCC(=O)Nc2ccc3c(c2)OCCO3)nnc1-c1c[nH]c2ccccc12	5.61
CCOC(=O)[C@H](CCc1ccccc1)N[C@@H](C)C(=O)N1Cc2ccccc2C[C@H]1C(=O)O.Cl	7.97

Structure (SMILES)	hERG current change (%, negative = inhibition) at 10uM [%]
NC(=O)c1cc(-c2ccccc2)sc1NC(=O)Cc1ccc(S(=O)(=O)N2CCOCC2)s1	12.9
O=C(Nc1ccc(-c2nc3ccccc3o2)cc1)c1cccnc1	-3.53
CCN1C[C@]2(CO)CC[C@H](OC)[C@@]34C5C[C@H]6[C@H](OC)C5[C@](O)(C[C@H]6OC)[C@@](O)(C(OC)C23)[C@@H]14 (some centres unmarked)	18
COc1ccc(-n2nc(C(=O)NCC(=O)N3CCCCCC3)c3ccccc3c2=O)c(OC)c1	4.26
O=C(OCCN1C(=O)c2ccccc2C1=O)c1cccs1	-6.85
Cc1ccc(-c2cc(NC(=O)CSc3n[nH]c(N)n3)n(-c3ccccc3)n2)cc1	-10.3
CCN(CC)CCCn1c2c(c(SCC(=O)Nc3ccccc3Cl)nc1=O)CCC2	-55.4
CS(=O)(=O)N1CCN(C(=O)c2ccncc2)CC1	4.75
CCOc1nc(Oc2cccc(C(=O)O)c2)nc(Oc2cccc(C(=O)O)c2)n1	11.1
CC(=O)Nc1cc2nn(-c3ccccc3)nc2cc1Cl	10.6
Clc1ccc(C2CC(c3ccco3)n3ncnc3N2)cc1Cl (centres unmarked)	-21.5
CCc1c(C)nc2ncnn2c1N1CCC(C(=O)NCc2ccc3c(c2)OCO3)CC1	-68.7
O=C1CC(N2CCN(c3ccc(F)cc3)CC2)C(=O)N1c1ccccc1 (centres unmarked)	-9.91
Cc1cc(=O)[nH]c(SCC(=O)Nc2ccccc2C)n1	30.9
COC(=O)c1ccccc1NC(=O)CSc1n[nH]c(C)n1	-0.684
O=C(O)CC1(CC(=O)NCc2cccc(Cl)c2)CCCCC1	13.1
Cc1cn(C2OC(COC(=O)c3ccccc3)C(OC(=O)c3ccccc3)C2OC(=O)c2ccccc2)c(=O)[nH]c1=O (centres unmarked)	7.67
COc1ccc(OC)c(-c2cc(C(=O)Nc3sc4c(c3C#N)CCC(C)C4)c3ccccc3n2)c1 (centres unmarked)	0.308
Cc1cc(NCC2CCCCC2)nc2ccccc12	-42.7
N#Cc1c(Cl)nsc1NN	27.6
CCN(CC)S(=O)(=O)c1ccc2oc(SCc3ccc(F)cc3)nc2c1	-12.5
CCOc1ccc(NC(=O)CN(c2cccc(C(F)(F)F)c2)S(C)(=O)=O)cc1	-12.8

Structure (SMILES)	hERG current change (%, negative = inhibition) at 10uM [%]
CC(C)Cc1nnc(NC(=O)CCc2c[nH]c3ccccc23)s1	3.86
CCOC(=O)C1=C(N)N2C(=O)C(C)SC2=C(C(=O)OCC)C1c1ccc(O)cc1 (centres unmarked)	-4.21
Cc1ccc(-c2nc(-c3cccnc3)sc2CC(=O)Nc2ccc(C)c(Cl)c2)cc1	14.2
O=C(Nc1ccc(NC(=O)c2cccs2)cc1)c1ccc2ccccc2c1	25.3
Cc1nc2scc(-c3ccc(Cl)cc3)c2c(=O)o1	2.99
Cc1ccc(S(=O)(=O)N2CCn3cccc3C2C)cc1 (centres unmarked)	-22.7
CCCCn1c(N)c(N(CCOC)C(=O)c2sc3ccccc3c2Cl)c(=O)[nH]c1=O	-11.1
CSC1=N/C(=C\c2ccc(Br)o2)C(=O)S1	4.63
Cc1cc(C)cc(NC(=O)c2ccc(S(=O)(=O)C(F)F)cc2)c1	-29.7
CC(OC(=O)c1ccccc1)C(=O)NCCC1=CCCCC1 (centres unmarked)	-2.42
Cc1cc(=O)oc2cc(OCC(=O)NCc3ccccn3)ccc12	9.34
CC12CCC(=O)N1C(C(=O)Nc1nnc(SCc3ccccc3F)s1)CS2 (centres unmarked)	-26.2
O=C1CCc2cc(S(=O)(=O)NCCC(=O)NC3CCCCC3)ccc2N1	5.97
CCOC(=O)/C(=C\c1ccc(OC)c(OC)c1)C(=O)c1cccnc1	5.94
CNC(=S)N1CCN(CCNC2=CC(=O)CC(C)(C)C2)CC1	21.3
O=c1[nH]c2ccc(NS(=O)(=O)c3ccc(F)c(Cl)c3)cc2[nH]1	9.27
CCCOc1ccc(OC(=O)Cc2ccc(OC)c(S(=O)(=O)N3CCOCC3)c2)cc1	-21.7
CC(C)(C)NS(=O)(=O)c1ccc(NC(=O)NC2CCCCC2)cc1	-13.9
Cc1ccc2ncnc(Oc3ncccc3[N+](=O)[O-])c2c1	-7.8
COc1cc(NS(=O)(=O)c2ccc(NS(=O)(=O)c3ccccc3)cc2)nc(OC)n1	17.7
